Consider nine molecules from paper PMC7835222.

No constants are given. Whether binding was seen depends on the method and setting. For some assays here: In cells and extracts the contact can be indirect. Some entries that bind do so weakly or less than the wild type. Tags and fused reporters may be left off the sequences shown.

In assay [1] the target is GST-tagged PRMT3 full-length protein (pGEX-PR-FL) (human) (UniProt O60678). Briefly: pull-down; 15 µg GST-tagged PRMT3 on Glutathione Sepharose, lysates of HEK293 cells overexpressing HA-tagged ALDH members; 4 °C, 10 h; blot with HA antibody; only the target purified.
The target in assay [2] is Gal4 DNA-binding domain fusion of full-length human PRMT3 (pGBKT7-PRMT3) (human) (UniProt O60678). Briefly: two-hybrid; library screen, Matchmaker Gold Yeast Two-Hybrid System; full-length PRMT3 (pGBKT7-PR-FL) as bait against the Mate & Plate universal human normalized cDNA library.
In assay [3] the target is T1, GST-tagged C-terminal region of ALDH1A1 (pGEX-AL-CTR) (human) (UniProt P00352).
T1 sequence: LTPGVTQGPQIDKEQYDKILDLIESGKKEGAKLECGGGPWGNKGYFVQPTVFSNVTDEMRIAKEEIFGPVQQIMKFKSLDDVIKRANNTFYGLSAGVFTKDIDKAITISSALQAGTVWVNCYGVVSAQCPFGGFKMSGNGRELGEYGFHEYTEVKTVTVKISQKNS
In words: pull-down; 15 µg GST-tagged ALDH1A1 (full length or truncated) on Glutathione Sepharose, lysates of HEK293 cells overexpressing GFP-tagged PRMT proteins; 4 °C, 10 h; blot with GFP antibody; only the target purified.

In assay [4] the target is T2, GST-tagged N-terminal region of ALDH1A1 (pGEX-AL-NTR) (human) (UniProt P00352).
T2 sequence: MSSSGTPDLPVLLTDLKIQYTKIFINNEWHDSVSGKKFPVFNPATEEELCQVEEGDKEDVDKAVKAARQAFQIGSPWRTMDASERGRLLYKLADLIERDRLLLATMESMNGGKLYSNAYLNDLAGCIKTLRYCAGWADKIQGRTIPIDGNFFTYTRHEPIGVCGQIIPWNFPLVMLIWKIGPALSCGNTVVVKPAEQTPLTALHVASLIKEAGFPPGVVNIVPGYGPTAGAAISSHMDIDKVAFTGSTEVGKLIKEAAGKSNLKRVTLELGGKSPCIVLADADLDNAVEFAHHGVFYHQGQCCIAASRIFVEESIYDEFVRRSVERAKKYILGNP
Described as above.

For assay [5], the target named is GFP-tagged PRMT3 full-length protein (pEGFP-PR-FL) (human) (UniProt O60678). Briefly: co-IP; HEK293 cells co-transfected; GFP-tagged protein precipitated with GFP Trap A beads, 4 °C, 10 h; 10 mM Tris pH 7.5, 150 mM NaCl, 0.5 mM EDTA, 0.1% NP-40; blot with Myc (forward) or HA (reverse) antibody.
Assay [6] concerns the target Gal4 DNA-binding domain fusion of full-length human PRMT3 (pGBKT7-PRMT3) (human) (UniProt O60678). In words: two-hybrid; pGBKT7-PRMT3 and pGADT7-ALDH1A1 co-transformed in S. cerevisiae; selection medium with Aureobasidin-A and X-α-Gal lacking Trp and Leu, or Trp, Leu, His and Ade (two or four reporter genes).

B1: HA-ALDH3A1 (pCDNA4-HA-ALDH3A1) (enzyme, UniProt P30838 1-453)
chain: MSKISEAVKRARAAFSSGRTRPLQFRIQQLEALQRLIQEQEQELVGALAADLHKNEWNAYYEEVVYVLEEIEYMIQKLPEWAADEPVEKTPQTQQDELYIHSEPLGVVLVIGTWNYPFNLTIQPMVGAIAAGNSVVLKPSELSENMASLLATIIPQYLDKDLYPVINGGVPETTELLKERFDHILYTGSTGVGKIIMTAAAKHLTPVTLELGGKSPCYVDKNCDLDVACRRIAWGKFMNSGQTCVAPDYILCDPSIQNQIVEKLKKSLKEFYGEDAKKSRDYGRIISARHFQRVMGLIEGQKVAYGGTGDAATRYIAPTILTDVDPQSPVMQEEIFGPVLPIVCVRSLEEAIQFINQREKPLALYMFSSNDKVIKKMIAETSSGGVAANDVIVHITLHSLPFGGVGNSGMGSYHGKKSFETFSHRRSCLVRPLMNDEGLKVRYPPSPAKMTQH
As to B1, the binding entry in assay [1] is listed as “binds weakly”.

B2: HA-ALDH1A2 (pCDNA4-HA-ALDH1A2) (enzyme, UniProt O94788 1-518)
chain: MTSSKIEMPGEVKADPAALMASLHLLPSPTPNLEIKYTKIFINNEWQNSESGRVFPVYNPATGEQVCEVQEADKADIDKAVQAARLAFSLGSVWRRMDASERGRLLDKLADLVERDRAVLATMESLNGGKPFLQAFYVDLQGVIKTFRYYAGWADKIHGMTIPVDGDYFTFTRHEPIGVCGQIIPWNFPLLMFAWKIAPALCCGNTVVIKPAEQTPLSALYMGALIKEAGFPPGVINILPGYGPTAGAAIASHIGIDKIAFTGSTEVGKLIQEAAGRSNLKRVTLELGGKSPNIIFADADLDYAVEQAHQGVFFNQGQCCTAGSRIFVEESIYEEFVRRSVERAKRRVVGSPFDPTTEQGPQIDKKQYNKILELIQSGVAEGAKLECGGKGLGRKGFFIEPTVFSNVTDDMRIAKEEIFGPVQEILRFKTMDEVIERANNSDFGLVAAVFTNDINKALTVSSAMQAGTVWINCYNALNAQSPFGGFKMSGNGREMGEFGLREYSEVKTVTVKIPQKNS
On to B2, for which, in assay [1], the binding entry is “binds weakly”.

B3: GAL4 activation domain fusion of the C-terminal region (amino acid residues 371–501) of Retinal dehydrogenase 1 (ALDH1A1), library clone (domain or fragment, UniProt P00352 371-501)
chain: GGGPWGNKGYFVQPTVFSNVTDEMRIAKEEIFGPVQQIMKFKSLDDVIKRANNTFYGLSAGVFTKDIDKAITISSALQAGTVWVNCYGVVSAQCPFGGFKMSGNGRELGEYGFHEYTEVKTVTVKISQKNS
On to B3, for which the binding entry in assay [2] was “binds”.

B4: GFP-tagged C-terminal catalytic domain of PRMT3 protein (pEGFP-PR-CTR) (domain or fragment, UniProt O60678-1 186-531)
chain: MKQFAQDFVMHTDVRTCSSSTSVIADLQEDEDGVYFSSYGHYGIHEEMLKDKIRTESYRDFIYQNPHIFKDKVVLDVGCGTGILSMFAAKAGAKKVLGVDQSEILYQAMDIIRLNKLEDTITLIKGKIEEVHLPVEKVDVIISEWMGYFLLFESMLDSVLYAKNKYLAKGGSVYPDICTISLVAVSDVNKHADRIAFWDDVYGFKMSCMKKAVIPEAVVEVLDPKTLISEPCGIKHIDCHTTSISDLEFSSDFTLKITRTSMCTAIAGYFDIYFEKNCHNRVVFSTGPQSTKTHWKQTVFLLEKPFSVKAGEALKGKVTVHKNKKDPRSLTVTLTLNNSTQTYGLQ
In the case of B4, the binding entry in assay [3] is on record as “binds”; in assay [4], “no binding”.

B5: HA-ALDH1A3 (pCDNA4-HA-ALDH1A3) (enzyme, UniProt P47895 1-512)
chain: MATANGAVENGQPDRKPPALPRPIRNLEVKFTKIFINNEWHESKSGKKFATCNPSTREQICEVEEGDKPDVDKAVEAAQVAFQRGSPWRRLDALSRGRLLHQLADLVERDRATLAALETMDTGKPFLHAFFIDLEGCIRTLRYFAGWADKIQGKTIPTDDNVVCFTRHEPIGVCGAITPWNFPLLMLVWKLAPALCCGNTMVLKPAEQTPLTALYLGSLIKEAGFPPGVVNIVPGFGPTVGAAISSHPQINKIAFTGSTEVGKLVKEAASRSNLKRVTLELGGKNPCIVCADADLDLAVECAHQGVFFNQGQCCTAASRVFVEEQVYSEFVRRSVEYAKKRPVGDPFDVKTEQGPQIDQKQFDKILELIESGKKEGAKLECGGSAMEDKGLFIKPTVFSEVTDNMRIAKEEIFGPVQPILKFKSIEEVIKRANSTDYGLTAAVFTKNLDKALKLASALESGTVWINCYNALYAQAPFGGFKMSGNGRELGEYALAEYTEVKTVTIKLGDKNP
Regarding B5, the binding result in assay [1] is recorded as “binds weakly”.

B6: GFP-tagged N-terminal region of PRMT3 protein (pEGFP-PR-NTR) (domain or fragment, UniProt O60678-1 1-186)
chain: MCSLASGATGGRGAVENEEDLPELSDSGDEAAWEDEDDADLPHGKQQTPCLFCNRLFTSAEETFSHCKSEHQFNIDSMVHKHGLEFYGYIKLINFIRLKNPTVEYMNSIYNPVPWEKEEYLKPVLEDDLLLQFDVEDLYEPVSVPFSYPNGLSENTSVVEKLKHMEARALSAEAALARAREDLQKM
With B6, the binding result in assay [3] and in assay [4] was “no binding” throughout.

B7: HA-tagged ALDH1A1 (pCDNA4-HA-AL-FL) (enzyme, UniProt P00352 1-501)
chain: MSSSGTPDLPVLLTDLKIQYTKIFINNEWHDSVSGKKFPVFNPATEEELCQVEEGDKEDVDKAVKAARQAFQIGSPWRTMDASERGRLLYKLADLIERDRLLLATMESMNGGKLYSNAYLNDLAGCIKTLRYCAGWADKIQGRTIPIDGNFFTYTRHEPIGVCGQIIPWNFPLVMLIWKIGPALSCGNTVVVKPAEQTPLTALHVASLIKEAGFPPGVVNIVPGYGPTAGAAISSHMDIDKVAFTGSTEVGKLIKEAAGKSNLKRVTLELGGKSPCIVLADADLDNAVEFAHHGVFYHQGQCCIAASRIFVEESIYDEFVRRSVERAKKYILGNPLTPGVTQGPQIDKEQYDKILDLIESGKKEGAKLECGGGPWGNKGYFVQPTVFSNVTDEMRIAKEEIFGPVQQIMKFKSLDDVIKRANNTFYGLSAGVFTKDIDKAITISSALQAGTVWVNCYGVVSAQCPFGGFKMSGNGRELGEYGFHEYTEVKTVTVKISQKNS
As for B7, in assay [1], the binding result was “binds”.

B8: Myc-tagged ALDH1A1 (pCDNA4-myc-AL-FL) (enzyme, UniProt P00352 1-501)
chain: B7 chain
In the case of B8, in assay [5], the binding result is “binds”.

B9: GAL4 activation domain fusion of full-length human ALDH1A1 (pGADT7-ALDH1A1) (enzyme, UniProt P00352 1-501)
chain: B7 chain
With B9, in assay [6], the binding entry was “binds”.
